# Hit rate of the full screen: of about 420,000 compounds, about 50,000 (12%) were called active. Inconclusive means that the source gave no clear call. Such entries were picked first, then a sample of the others. The call rests on the fitted dose curve; in most records, active means well fitted inhibition curve with a large enough effect; inconclusive means small, poorly fitted or top-dose-only effect; inactive means flat fitted curve, though single readings scatter. No potency is given beside an inconclusive call; the fits are too rough.
# Experiment: qHTS for Inhibitors of human tyrosyl-DNA phosphodiesterase 1 (TDP1): qHTS in cells in presence of CPT; further: nearly all actives have a fitted effect of over 55% in size
# Settings: chicken DT40 Tdp1-/-;hTDP1 cells + 20 nM CPT, ATP luminescence, 48 h; activity change, negative = growth inhibition: at 46.2 µM (top of the series)
# Summary of the method: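 Cell growth measured by CellTiter-Glo luminescence after a minimum 48 h, 37 C compound exposure with 20 nM CPT in Tdp1-knockout DT40 cells stably expressing hTDP1, seeded 400/well; qHTS titration format.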
# On the % scale 0 is the no-effect control and ±100 the full control effect; potency means the concentration at half of the fitted maximal effect; tags describe the fitted curve by direction and shape.
SMILES,Potency,"activity change, negative = growth inhibition"
Cc1ccc(-n2ncc(C(=O)NCc3cccs3)c2C2CCN(C(=O)OC(C)(C)C)CC2)c(C)c1,"inconclusive [inhibitor, single point]",
COc1ccc(-c2n[nH]c(=S)o2)c(OC)c1,"inconclusive [inhibitor, single point]",
Brc1ccccc1-c1nnc(COc2cccc3cccnc23)o1,"inconclusive [inhibitor, single point]",
COc1ccc(NC(=O)C2=C(C)Nc3nc(SCc4ccccc4C)nn3C2c2cc(OC)c(O)c(OC)c2)cc1 (configuration not stated),inactive,
Cc1nn2c(NCCN(C)C)c3c(nc2c1-c1ccccc1)CCC3,"inconclusive [inhibitor, single point]",
CC(N=Cc1nc(-c2ccccc2)oc1O)c1ccccc1 (configuration not stated),"inconclusive [inhibitor, single point]",
CCC(=NCc1ccccc1)C1=C(O)C(C(=O)OC)C(C)(C)CC1=O (configuration not stated),inactive,
CC1CCCCC1NC(=O)Cn1c(=O)oc2cc(S(=O)(=O)N3CCCC3)ccc21 (configuration not stated),"inconclusive [inhibitor, partial curve, poor fit]",
CCCCN(C(=O)CSCC(=O)Nc1ccc(OC)cc1)c1c(N)n(CC(C)C)c(=O)[nH]c1=O,inactive,
Cc1cc(C)n(CCc2nc(-c3ccc(-c4ccccc4)cc3)cs2)n1,"inconclusive [inhibitor, single point]",
Cc1cc(C)cc(NCc2cc3c(cc2[N+](=O)[O-])OCO3)c1,,inconclusive: -37.6% [inhibitor]
COc1ccc(CNC(=O)c2cc3cccc(O)c3oc2=N)cc1,"inconclusive [inhibitor, single point]",
O=C(NNS(=O)(=O)c1ccc(Br)cc1)c1csnn1,inactive,
CC12CC3(C)CC(C)(C1)CC(C(=O)NC(=S)N1CCCC1)(C2)C3,,inconclusive: -30.2% [inhibitor]
COc1ccccc1C(=O)NC(CCSC)C(=O)NCC(c1ccccc1OC)N1CCCC1 (configuration not stated),"inconclusive [inhibitor, single point]",
O=C(NCc1ccccc1Cl)c1ccc(CSCc2ccccc2Cl)o1,active: 16.4 µM,
COc1ccc(OC)c(NC(=O)CSc2nnc3ccc4ccccc4n23)c1,"inconclusive [inhibitor, single point]",
COc1ccc(C(=O)Nc2ccc3ccccc3n2)c(OC)c1OC,"inconclusive [inhibitor, single point]",
COc1ccc(OC)c(NC(=O)Nc2nnc(N3CCCCC3C)s2)c1 (configuration not stated),"inconclusive [inhibitor, single point]",
Cc1ccc(CSc2nnc(CCNC(=O)OC(C)(C)C)o2)cc1,"inconclusive [inhibitor, single point]",
COc1ccc(NC(=O)CCn2c(=O)c3cccn3c3cccnc32)c(OC)c1,"inconclusive [inhibitor, single point]",
CCC(C(=O)NCc1ccccc1)n1nc(C)c2sc3ccccc3c2c1=O (configuration not stated),"inconclusive [inhibitor, single point]",
CCOC(=O)N1CCN(C(=O)c2cc3c(-c4cccc(OC)c4)nn(C)c3s2)CC1,"inconclusive [inhibitor, single point]",

SMILES,Potency,"activity change, negative = growth inhibition"
O=c1c(-c2ccccc2)cocc1-c1ccccc1,inactive,
CC(C)Cc1ccc(-c2cc(=O)[nH][nH]2)cc1,"inconclusive [inhibitor, single point]",
CCOc1ccc2nc(N3CCC(C(=O)N4CCN(c5ncccn5)CC4)CC3)sc2c1,"inconclusive [inhibitor, single point]",
COc1ccc(-c2cn3c(C)c(C(=O)Nc4cc(NC(C)=O)ccc4OC)sc3n2)cc1,active: 13 µM,
Nc1ccc(C(=O)N/N=C/c2cn(Cc3ccccc3F)c3ccccc23)cc1,"inconclusive [inhibitor, single point]",
Cc1ccc(-c2nnc(Nc3cccc(O)c3)c3ccccc23)cc1S(=O)(=O)N1CCOCC1,"inconclusive [inhibitor, single point]",
CC1CC(C)CN(CCCNC(=O)CC2Oc3ccccc3NC2=O)C1 (configuration not stated),inactive,
CCc1ccc(NC(=O)CCn2nc(-c3ccccc3OC)c3c(C)cc(C)nc32)cc1,"inconclusive [inhibitor, single point]",
CON(C)S(=O)(=O)c1cccc(C(=O)Nc2ccc(S(=O)(=O)NC3=NCCCCC3)cc2)c1,"inconclusive [inhibitor, single point]",
COCC(=O)N1CCC2(CCCN(Cc3ccccc3)C2)CC1,inactive,
CCN1C(=O)[C@H]2[C@@H](c3ccc(OC)cc3)N[C@]3(CCCN(Cc4ccc(C(F)(F)F)cc4)C3=O)[C@H]2C1=O,"inconclusive [inhibitor, single point]",
O=C(Nc1ccccc1N1CCCC1)c1ccc(F)c(S(=O)(=O)N2CCOCC2)c1,"inconclusive [inhibitor, single point]",
COc1ccc(N(CC(=O)NCc2cccs2)S(=O)(=O)c2cccc(C)c2)cc1,"inconclusive [inhibitor, single point]",
NNC(=O)C(=O)/C=C1\NC2(CCCC2)Cc2ccccc21,inactive,
Cc1csc(N(C(=O)CCNC(=O)c2ccc([N+](=O)[O-])cc2)c2ccccc2)n1,"inconclusive [inhibitor, single point]",
CCC(c1nnnn1Cc1ccco1)N(Cc1ccccc1OC)Cc1cc2cc(C)ccc2[nH]c1=O (configuration not stated),"inconclusive [inhibitor, partial curve, poor fit]",
Cc1cnc([N+](=O)[O-])n1CCOC(=O)c1cccc(F)c1,inactive,
Cc1ccc(-c2noc(Cn3cc(S(=O)(=O)N4CCCC4)ccc3=O)n2)cc1,inactive,
O=C(Nc1cc(Cl)ccc1-n1cncn1)c1ccco1,inactive,
CC1=CC(C)(C)N2C(=O)C(=O)c3cc(OC(=O)c4ccco4)cc1c32,active: 0.651 µM,
CCN(CC)c1ncnc2c1ncn2[C@H]1CN(Cc2ccc(-c3ccccc3)cc2)C[C@@H](CO)O1,"inconclusive [inhibitor, single point]",
O=C(COc1ccccc1)Nc1ccc(N2CCN(C(=O)c3cccs3)CC2)cc1,"inconclusive [inhibitor, single point]",
O=C1C(=O)c2c(C(=O)c3ccccc3)coc2-c2ccccc21,active: 3.26 µM,

SMILES,Potency,"activity change, negative = growth inhibition"
COc1cccc(-c2cccc(-c3nc(C(=O)NCCCN4CCOCC4)cc4c3[C@H](CCO)N(S(=O)C(C)(C)C)C4)c2)c1 (some centres not stated),"inconclusive [inhibitor, single point]",
O=C(N/N=C/c1cc(Br)c(O)c([N+](=O)[O-])c1)C(O)(c1ccccc1)c1ccccc1,"inconclusive [inhibitor, single point]",
Cc1ccc(F)cc1C(=O)N1CCCC(c2cc(C(=O)Nc3ccccc3)no2)C1 (configuration not stated),"inconclusive [inhibitor, partial curve, poor fit]",
COCC(=O)Nc1cc(C(=O)N2CCc3c([nH]c4ccccc34)C2)cc2nc(-c3ccccc3)n(C)c12,"inconclusive [inhibitor, single point]",
Cc1ccc(C)c(NC(=S)NNc2ccc(F)cc2F)c1,"inconclusive [inhibitor, single point]",
COc1cccc(/C=C/c2ccc3ccccc3[n+]2C)c1OC,"inconclusive [inhibitor, partial curve, poor fit]",
COc1ccccc1Cn1c(=S)[nH]c2cc(C(=O)NCC(OC)OC)ccc2c1=O,"inconclusive [inhibitor, partial curve]",
COc1cccc(-c2cc3nc(NCc4cccnc4)n(C)c(=O)c3s2)c1,"inconclusive [inhibitor, single point]",
Cc1nc(C)c(C(=O)N2CCCC(C(=O)c3ccc4ccccc4c3)C2)s1 (configuration not stated),"inconclusive [inhibitor, single point]",
O=C1c2ccccc2S(=O)(=O)c2cc(C(=O)N3CCN(c4ccccc4)CC3)ccc21,"inconclusive [inhibitor, single point]",
COc1ccc(OC)c(C(=O)CN2C(=O)C(=O)N(C3CCCC3)C2=O)c1,inactive,
Cc1nc2nc(C)c(CCC(=O)N3CCN(c4ccccc4)CC3)c(C)n2n1,inactive,
CCC(C)NC(=O)c1ccccc1NC(=O)CN1C(=O)c2cccc3cccc1c23 (configuration not stated),inactive,
CN1CCN(c2ccc3sc(-n4ccc5ccccc54)nc3c2)CC1,active: 16.4 µM,
Cc1cccc(NC(=O)c2ccc3nccnc3c2)c1C,"inconclusive [inhibitor, single point]",
Cc1ccc(/C=N/NC(=O)c2cc(C3CC3)nc3ccccc23)o1,active: 4.11 µM,
O=C(CC(c1ccccc1)c1ccccc1)Nc1ccc(Cl)cn1,"inconclusive [inhibitor, single point]",
Cc1ccc2nc(N3CCC(C(=O)N4CCN(c5cccc(Cl)c5)CC4)CC3)[nH]c2c1,active: 13 µM,
CC(C)CCOC(=O)c1ccc(N(C)C)cc1,inactive,
COCCCNc1nc2c(c(=O)[nH]c(=O)n2C)n1CC(O)COc1ccccc1C (configuration not stated),inactive,
COc1ccc(CCNC(=O)CSCc2ccc(Br)cc2)cc1OC,"inconclusive [inhibitor, single point]",

# Source: PubChem BioAssay AID686979 (National Center for Advancing Translational Sciences (NCATS), 2013)
